US20170305975A1 (PROCLARA BIOSCIENCES, published 2017)

Columns and labels:
[1] = biological target: SOD-1 (apo-enzyme monomers assembling into fibers); test: cell-based or functional assay
[2] = biological target: T1, amyloid-β 1-42 fibers (fAβ42) (human, UniProt P05067 part only); test: SPR on Aβ fibrils, 25° C.
T1 construct: domain: amyloid-β 1-42; also called Aβ fibrils; Aβ fibers

[3] = biological target: tau fibers (ftau); test: SPR, MTBR surface (~2000RU), Construct 6 2.5 µM in HBS pH=7.5, 10 µL/min

T1 sequence (P05067 672-713 limits assumed): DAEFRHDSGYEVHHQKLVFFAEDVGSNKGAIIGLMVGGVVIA

B1: rs-g3p(N1N2)-hIgG1-Fc fusion protein (Construct 6) (Fc fusion)
chain: ETVESCLAKPHTENSFTNVWKDDKTLDRYANYEGCLWNATGVVVCTGDETQCYGTWVPIGLAIPENEGGGSEGGGSEGGGSEGGGTKPPEYGDTPIPGYTYINPLDGTYPPGTEQNPANPNPSLEESQPLNTFMFQNNRFRNRQGALTVYTGTFTQGTDPVKTYYQYTPVSSKAMYDAYWNGKFRDCAFHSGFNEDPFVCEYQGQSSDLPQPPVNAGGGSGGGSGGGSEGGGSEGGGSEGGGSEGGGSGGGSGSGAMVRS[human IgG1 Fc not shown]
notes: also called N1N2-IgG1Fc fusion protein; IgG1Fc-g3p(N1N2)
IC50 of inhibition of SOD-1 fiber formation, ThT fluorescence [1]: ~750 nM | Kd [2]: 9.2 nM | koff [2]: 0.000158 s⁻¹ | kon [2]: 17100 M⁻¹ s⁻¹ | Kd [3]: 75.1 nM | koff [3]: 0.000641 s⁻¹ | kon [3]: 8540 M⁻¹ s⁻¹
